{
  "source": "PubChem BioAssay AID463173",
  "about": "(ICCB-Longwood Screening Facility, Harvard Medical School, 2010)",
  "note": "About 4,300 (8.3%) of roughly 52,000 compounds were called active. Cut-off read from the data, not from the text of the source: active = survival mostly below about 52% (no sharp cut-off); inactive = mostly above about 56%. This is one part of the list.",
  "data": [
    {"test_system": "DeltatarO mutant", "assay": "S. aureus survival, RN4220 and DeltatarO strains – OD600, teichoic acid synthesis inhibitors, primary screen (AID 463173)", "conditions": "S. aureus RN4220 wild type/DeltatarO growth, OD600, 18 h, active compounds read low, screened at 18.75 µg/mL (by protocol)", "values": [
      {"smiles": "O=C(O)CCCn1c(=O)oc2ccccc21", "survival": "inactive: 96%"},
      {"smiles": "COCCCNC(=O)c1sc2nc(C)c(C(=O)Nc3ccc(C)cc3C)c(-c3ccccc3Cl)c2c1N", "survival": "inactive: 61%"},
      {"smiles": "CCc1ccc2oc(-c3ccc(NC(=O)c4cc5ccccc5o4)cc3)nc2c1", "survival": "active: 40%"},
      {"smiles": "CCCNC(=O)CCCN1C(=O)CCn2nc(-c3cccn3C)cc21", "survival": "inactive: 89%"},
      {"smiles": "COc1ccc(C(=O)NCc2ccc3c(c2)CCN3C(=O)c2ccccc2)cc1", "survival": "inactive: 84%"},
      {"smiles": "Cn1c(=O)c(=O)n(C)c2cc(C(=O)NCc3ccccc3Cl)ccc21", "survival": "inactive: 70%"},
      {"smiles": "O=C(Cn1nc(-c2ccc(Cl)cc2)c2ccccc2c1=O)Nc1cccc(C(F)(F)F)c1", "survival": "active: 34%"},
      {"smiles": "COC(=O)c1scc(-c2ccc(C)cc2)c1S(=O)(=O)N1CCN(c2ccc(C)cc2C)CC1", "survival": "inactive: 66%"},
      {"smiles": "COc1cccc(Nc2nc3ccccc3c3nncn23)c1", "survival": "inactive: 89%"},
      {"smiles": "Cn1c(SCc2cc(=O)c3cc(Cl)ccc3[nH]2)nnc1-c1ccccc1", "survival": "inactive: 113%"},
      {"smiles": "O=C(Nc1sc2c(c1C(=O)c1ccccc1)CCCC2)c1ccco1", "survival": "inactive: 73%"},
      {"smiles": "COc1ccc(C(CNC(=O)c2oc3cc(C)c(Cl)cc3c2C)N2CCCCC2)cc1", "note": "(stereo unspecified)", "survival": "inactive: 87%"},
      {"smiles": "Cc1ccc(C2C3=C(CCCC3=O)N(C)C3=C2C(=O)CCC3)cc1", "survival": "inactive: 86%"},
      {"smiles": "COCCNC(=O)CCc1c(C)n(C)c2cc(-c3cc(OC)c(OC)c(OC)c3)nn2c1=O", "survival": "active: 25%"},
      {"smiles": "OC1COCc2nc3ccccc3n2C1", "note": "(stereo unspecified)", "survival": "active: 57%"},
      {"smiles": "CC1CCN(S(=O)(=O)c2ccc3nc(NCc4ccccc4)ccc3c2)CC1", "survival": "inactive: 119%"},
      {"smiles": "Cn1ccc2c(OCC(=O)Nc3ccc(OC(F)(F)F)cc3)cccc2c1=O", "survival": "inactive: 95%"},
      {"smiles": "Nc1cc(=O)[nH]c2n[nH]c(=S)n12", "survival": "inactive: 79%"},
      {"smiles": "CC(=O)c1ccc(NS(=O)(=O)c2ccc(Br)s2)cc1", "survival": "active: 47%"},
      {"smiles": "CCCSc1ncc(Cl)c(C(=O)N(Cc2ccccc2)c2ccc(OC)cc2)n1", "survival": "active: 45%"},
      {"smiles": "CC1=Nc2ccc(Cl)cc2C(c2ccccc2)N1CC(=O)NN", "note": "(stereo unspecified)", "survival": "inactive: 117%"},
      {"smiles": "COc1cccc(NC(=O)N(CCC(C)C)C2CCN(C(C)C)CC2)c1", "survival": "inactive: 79%"},
      {"smiles": "Cc1ccc(CNC(=O)C2CCN(S(=O)(=O)c3ccc4nc5c(c(C(=O)O)c4c3)CC(C)CC5)CC2)cc1", "note": "(stereo unspecified)", "survival": "inactive: 88%"},
      {"smiles": "CCc1cnc2c(c1SCC(=O)NCc1ccc(C)cc1)c(=O)n(C)c(=O)n2C", "survival": "inactive: 70%"},
      {"smiles": "CCN(C(=O)c1cccc(Cl)c1)C1CCCCC1", "survival": "inactive: 104%"},
      {"smiles": "CCOCCCNC(=O)c1cn(CC)c2ccc(S(=O)(=O)N3CCOCC3)cc2c1=O", "survival": "inactive: 81%"}
    ]}
  ]
}
